Experiment [1] concerns the target T1, 6-His-AdhE (bifunctional aldehyde-alcohol dehydrogenase AdhE, Escherichia coli K12) (Escherichia coli K12), P0A9Q7.
T1 chain: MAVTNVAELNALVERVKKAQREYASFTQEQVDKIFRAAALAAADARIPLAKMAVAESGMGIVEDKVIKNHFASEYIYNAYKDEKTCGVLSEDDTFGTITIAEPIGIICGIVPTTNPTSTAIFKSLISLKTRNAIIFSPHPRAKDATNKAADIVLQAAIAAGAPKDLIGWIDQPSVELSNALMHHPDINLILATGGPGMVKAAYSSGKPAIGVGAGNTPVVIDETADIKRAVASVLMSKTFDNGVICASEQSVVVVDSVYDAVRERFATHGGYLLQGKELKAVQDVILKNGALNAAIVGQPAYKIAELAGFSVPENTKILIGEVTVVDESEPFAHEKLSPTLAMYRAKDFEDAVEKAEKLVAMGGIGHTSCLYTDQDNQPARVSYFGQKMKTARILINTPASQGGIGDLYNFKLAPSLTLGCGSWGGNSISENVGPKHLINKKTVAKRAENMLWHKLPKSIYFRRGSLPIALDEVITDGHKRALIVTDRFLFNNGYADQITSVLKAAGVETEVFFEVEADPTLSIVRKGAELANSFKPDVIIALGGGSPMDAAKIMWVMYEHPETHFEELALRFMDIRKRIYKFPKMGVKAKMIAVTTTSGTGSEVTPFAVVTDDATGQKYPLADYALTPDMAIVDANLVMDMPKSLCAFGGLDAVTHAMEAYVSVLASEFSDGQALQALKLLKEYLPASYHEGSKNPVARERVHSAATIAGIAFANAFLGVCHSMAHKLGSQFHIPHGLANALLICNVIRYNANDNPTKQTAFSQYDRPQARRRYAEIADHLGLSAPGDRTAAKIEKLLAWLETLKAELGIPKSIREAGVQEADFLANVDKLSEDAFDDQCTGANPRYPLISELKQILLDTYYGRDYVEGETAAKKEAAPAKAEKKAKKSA
Nature of the experiment: AUC. The following applies: remark: other sources report otherwise.

Experiment [2] has as its target T1, 6-His-AdhE (bifunctional …). Nature of the experiment: SAXS. The note with it: remark: other sources report otherwise.

Where “and” joins values, the source holds several entries; their conditions need not be identical. Equal values may be shown once. A value given as a limit tells only on which side of the number the result lay.

By stoichiometry N is commonly meant a count of units in the complex or per binding partner.

B1: 6-His-AdhE (bifunctional aldehyde-alcohol dehydrogenase AdhE, Escherichia coli K12), P0A9Q7 1-891 (enzyme)
chain: MAVTNVAELNALVERVKKAQREYASFTQEQVDKIFRAAALAAADARIPLAKMAVAESGMGIVEDKVIKNHFASEYIYNAYKDEKTCGVLSEDDTFGTITIAEPIGIICGIVPTTNPTSTAIFKSLISLKTRNAIIFSPHPRAKDATNKAADIVLQAAIAAGAPKDLIGWIDQPSVELSNALMHHPDINLILATGGPGMVKAAYSSGKPAIGVGAGNTPVVIDETADIKRAVASVLMSKTFDNGVICASEQSVVVVDSVYDAVRERFATHGGYLLQGKELKAVQDVILKNGALNAAIVGQPAYKIAELAGFSVPENTKILIGEVTVVDESEPFAHEKLSPTLAMYRAKDFEDAVEKAEKLVAMGGIGHTSCLYTDQDNQPARVSYFGQKMKTARILINTPASQGGIGDLYNFKLAPSLTLGCGSWGGNSISENVGPKHLINKKTVAKRAENMLWHKLPKSIYFRRGSLPIALDEVITDGHKRALIVTDRFLFNNGYADQITSVLKAAGVETEVFFEVEADPTLSIVRKGAELANSFKPDVIIALGGGSPMDAAKIMWVMYEHPETHFEELALRFMDIRKRIYKFPKMGVKAKMIAVTTTSGTGSEVTPFAVVTDDATGQKYPLADYALTPDMAIVDANLVMDMPKSLCAFGGLDAVTHAMEAYVSVLASEFSDGQALQALKLLKEYLPASYHEGSKNPVARERVHSAATIAGIAFANAFLGVCHSMAHKLGSQFHIPHGLANALLICNVIRYNANDNPTKQTAFSQYDRPQARRRYAEIADHLGLSAPGDRTAAKIEKLLAWLETLKAELGIPKSIREAGVQEADFLANVDKLSEDAFDDQCTGANPRYPLISELKQILLDTYYGRDYVEGETAAKKEAAPAKAEKKAKKSA
On to B1, for which the stoichiometry N in experiment [1] was < 50 mer; in experiment [2], 40 mer and 14 mer.

(Values after publication PMC12173503, “Enterohaemorrhagic Escherichia coli AdhE spirosome length correlates with enzymatic directionality and is perturbed by salicylidene acylhydrazides” (Open Biology, 2025).)
